The source of these data is paper PMC9574860, “Chemical Toolkit for PARK7: Potent, Selective, and High-Throughput” (Journal of Medicinal Chemistry, 2022).

The campaign covered roughly 7,900 compounds. About 400 (5.1%) showed an effect of 50% or more. Some of the results follow.

The assay deals with Parkinson's disease protein 7 (PARK7/DJ1) (human, UniProt Q99497). Kind of assay: primary screen, percent inhibition; read as competition with a fluorescent probe by fluorescence polarization; higher = more effect of the substance. To be noted: 100 µM. As for the experimental part: The screen was conducted using the conditions as described above in 1536-well plates (Corning 3724) with a reaction volume of 8 μL per well. The compound library containing 7887 covalent fragments was purchased at Enamine Ltd. and received as 100 mM DMSO stocks in 384 well LDV Echo plates (Labcyte LP-0200). Stock solutions of 0.26 μM PARK7 and 80 nM JYQ-107 were prepared. Using a Labcyte Echo550 acoustic dispenser, 8 nL of the DMSO stock solution of the library compounds was transferred from the source plates into the empty 1536-well screening plates to obtain a 100 μM final compound concentration. Next, PARK7 (6 μL, final concentration 0.2 μM) was dispensed using a Biotek MultiflowFX liquid dispenser and incubated for 2 h, followed by dispensing the probe JYQ-107 (2 μL, final concentration 20 nM). After 2 h incubation, the FP signal was recorded on a BMG Labtech PHERAstar plate reader (λex/em 480/520 nm). The relative loss of FP signal compared with reference controls was used to calculate the remaining enzyme activity.
Chain of Parkinson's disease protein 7 (PARK7/DJ1) (Q99497 whole entry, looked up, the tested form may be a part): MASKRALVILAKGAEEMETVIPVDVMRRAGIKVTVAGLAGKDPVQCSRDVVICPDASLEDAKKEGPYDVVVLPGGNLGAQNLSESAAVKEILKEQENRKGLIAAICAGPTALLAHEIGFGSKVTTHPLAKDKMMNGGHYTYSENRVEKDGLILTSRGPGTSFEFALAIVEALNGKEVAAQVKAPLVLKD
`C=CC(=O)N1C[C@H]2CCCC[C@H]2C1`: the Inhibition % was 13.7%. For the compound `CN(C)c1ccc(C=CC#N)cc1`, the Inhibition % was determined as 10.9%. The value for `OB(O)c1cccc(OC2CCCC2)c1` was 11.7%. `COCc1ccc(B2OC(C)(C)C(C)(C)O2)cc1F`: the Inhibition % is listed as 4.89%. On to `C=CC(=O)NCc1ccnn1C`, for which the Inhibition % was found to be 8.81%. Turning to `O=C1CN=C(S)N1C1CCCCC1`, the Inhibition % is listed as -1.4%. The value for `CC(C)Oc1ccc(O)cc1B1OC(C)(C)C(C)(C)O1` was 5.32%.

For `O=c1[nH]c(=O)n(CCC2OCCO2)cc1Cl`, the Inhibition % stood at 5.36%. As for `O=S(=O)(C=Cc1ccccc1)Nc1cc(C(F)(F)F)n[nH]1`, the Inhibition % is recorded as 5.76%. With `OC1(CCC2CO2)CCC1` (stereo not shown), the Inhibition % came to 7.16%. In the case of `CN(CC1CC1)S(=O)(=O)C=Cc1ccccc1`, the Inhibition % was 7.7%. As to `C=CC(=O)N1CCN(C(=O)NC2CCCCC2)CC1`, the Inhibition % was 10.9%. Take `CCN(c1ccc(C(F)(F)F)c(C#N)n1)C1CCOC1` (stereo not shown): the Inhibition % was 8.44%. On to `Cn1ncc2c(S)ncnc21`, for which the Inhibition % is 6.07%.

On to `CC1(C)OB(c2ccc(SC(F)F)cc2)OC1(C)C`, for which the Inhibition % is on record as 12.5%. With `O=c1cnc2ccccc2n1CCS(=O)(=O)F`, the Inhibition % is listed as 13.8%.

Take `COc1ccc(NCCS(=O)(=O)F)cc1.Cl`: the Inhibition % came to 44.4%.

As for `C=CC(=O)N1CCC(CC(N)=O)CC1`, the Inhibition % worked out at 5.67%.

As to `C=CC(=O)NCCc1nccs1`, the Inhibition % is reported as 8.81%.

Turning to `CC1(C)OB(c2cccc(CN3CCCC3)c2)OC1(C)C.Cl`, the Inhibition % is 6.39%.

Regarding `N#Cc1ncn(CC(=O)NCC(F)(F)F)n1`, the Inhibition % is 8.99%.

With `Cc1c(C#N)c(NC(=O)CCl)n(Cc2ccco2)c1C`, the Inhibition % is given as 36.7%.

Consider `C=CC(=O)N1CCC(c2cnn(C)c2)CC1`, for which the Inhibition % is recorded as 5.8%. On to `O=C(CCl)NC(=O)OCc1ccccc1`, for which the Inhibition % was determined as 33.1%. The value for `O=C(N1CCCC1C1CCCCC1)n1ccnc1` (stereo not shown) was 5.92%; that for `O=C(CN1CCSC1=O)NC1CCc2ccccc21` (stereo not shown) was 5.18%. In the case of `O=C(Nc1ccc2c(c1)B(O)OCC2)C1CCCCO1` (stereo not shown), the Inhibition % is 9.99%. With `C=CC(=O)N1Cc2ccccc2C1`, the Inhibition % was 7.43%. Turning to `Cc1ccc(C(=O)C=Cc2cc(C#N)n(C)c2C)o1`, the Inhibition % was found to be 7.22%. In the case of `C=CC(=O)N1CC(C)CC1c1ccccc1` (stereo not shown), the Inhibition % is on record as 4.59%. With `C=CS(=O)(=O)c1ccc(F)cc1`, the Inhibition % came to 13%.

On to `CCN(C1CC1)S(=O)(=O)C=Cc1ccccc1`, for which the Inhibition % is on record as 4.44%. For the compound `C=CC(=O)NC1(C(N)=O)CCCOC1` (stereo not shown), the Inhibition % is given as 3.4%. The value for `N#Cc1ccc(NC(=O)CCCCl)cc1` was 2.77%; that for `N#Cc1ncc(Cl)cc1Cl` was 8.09%. Turning to `Nc1nnc(SC2CCOC2=O)s1` (stereo not shown), the Inhibition % is 3.23%. The value for `CC(C)c1cccc(NC(=O)Cn2cnc(C#N)n2)c1` was -0.97%; that for `O=C(CCl)NCCC1=CCCCC1` was 31.7%; that for `COc1c(S(=O)(=O)n2cccn2)ccc(Cl)c1Cl` was 0.301%. For the compound `NC(=O)C1OC12CCCCC2` (stereo not shown), the Inhibition % amounted to 3.87%.

In the case of `CSc1ccc(C=C(C#N)C(=O)N2CCCC2)cc1`, the Inhibition % worked out at 15.3%. Turning to `CC1(CCl)NC(=O)c2ccccc2N1` (stereo not shown), the Inhibition % came out at 4.81%. As to `N#Cc1nc(F)ccc1O`, the Inhibition % is recorded as 55.2%. On to `Cc1c(C=C2Oc3cc(O)ccc3C2=O)cc(C#N)n1C`, for which the Inhibition % turned out to be 1.38%. With `C=CC(=O)NCc1ccc2c(c1)CCS2(=O)=O` the figure was 7.72%. For `Cc1cc(NS(=O)(=O)c2ccc(S(=O)(=O)F)cc2)c[nH]c1=O`, the Inhibition % amounted to 92.6%.

As to `O=S(=O)(C=Cc1ccc(Cl)cc1)NC1CCCC1`, the Inhibition % was 5.87%. On to `N#Cc1ccc(NCC2CCSCC2)nn1`, for which the Inhibition % is listed as 9.68%. The value for `Cc1cc(=O)oc2c(C)c(OCC3CO3)ccc12` (stereo not shown) was 8%; that for `CC(=O)N(C)Cc1ccc(C(=O)CCl)cc1` was 79.8%; that for `Cl.ClCCCc1nc2ccccc2[nH]1` was 0.892%. Consider `C=CCOc1cncc(B2OC(C)(C)C(C)(C)O2)c1`, for which the Inhibition % is listed as 0.186%. With `O=C(O)c1cccnc1S`, the Inhibition % is 5.3%. In the case of `O=C(N1CCCC1Cc1ccccc1)n1ccnc1` (stereo not shown), the Inhibition % turned out to be 2.39%. In the case of `CCc1ccc(C=CS(=O)(=O)N2CCCC2C(=O)O)cc1` (stereo not shown), the Inhibition % stood at 0.98%. The value for `N#Cc1ccc(NCC(=O)N2CCc3ccccc32)cn1` was 1.56%.

Take `C=CC(=O)NC(C)(C)c1nc(C)cs1`: the Inhibition % is recorded as 8.42%. With `N#Cc1c(NC(=O)CC2CCCCC2)nc2n1CCS2` the figure was 6.61%. As for `C=CC(=O)NCCc1nsc2ccccc12`, the Inhibition % is recorded as 0.371%. In the case of `Cc1occc1-c1nnc(SC2CC(C)OC2=O)o1` (stereo not shown), the Inhibition % is reported as 3.03%. The value for `N#Cc1cccc(OC(F)F)n1` was 6.74%.

Turning to `N#Cc1ccc(C2OCCO2)cc1`, the Inhibition % is 3.68%. Turning to `NC(=O)C1CCN(C2CCOC2=O)CC1` (stereo not shown), the Inhibition % was 7.51%. With `CC(NC(=O)CCl)c1ccc(-c2ccccc2)cc1` (stereo not shown), the Inhibition % was 3.9%.
